# Results reported in PubChem BioAssay AID488969 (Vanderbilt High Throughput Screening Facility, 2010).
# The full ranking holds about 110,000 compounds; the median of “z-score” is about -0.1, and the highest 2% start at about 2. The list shows a part of the results.
# Target: Metabotropic glutamate receptor 8 (Rattus norvegicus) (UniProt P70579)
# Assay: mGluR8 Gi/Go-coupled signaling modulation – cell-based, rat, thallium flux, HTS, primary screen (AID 488969)
# Settings: HEK293 rat mGluR8, GIRK (G protein-gated inwardly rectifying potassium channel) thallium flux, FluoZin2; at 10 µM; stronger effect = higher value; submaximal glutamate (EC20) added with thallium
# Sequence of UniProt P70579 (P70579 whole entry, looked up): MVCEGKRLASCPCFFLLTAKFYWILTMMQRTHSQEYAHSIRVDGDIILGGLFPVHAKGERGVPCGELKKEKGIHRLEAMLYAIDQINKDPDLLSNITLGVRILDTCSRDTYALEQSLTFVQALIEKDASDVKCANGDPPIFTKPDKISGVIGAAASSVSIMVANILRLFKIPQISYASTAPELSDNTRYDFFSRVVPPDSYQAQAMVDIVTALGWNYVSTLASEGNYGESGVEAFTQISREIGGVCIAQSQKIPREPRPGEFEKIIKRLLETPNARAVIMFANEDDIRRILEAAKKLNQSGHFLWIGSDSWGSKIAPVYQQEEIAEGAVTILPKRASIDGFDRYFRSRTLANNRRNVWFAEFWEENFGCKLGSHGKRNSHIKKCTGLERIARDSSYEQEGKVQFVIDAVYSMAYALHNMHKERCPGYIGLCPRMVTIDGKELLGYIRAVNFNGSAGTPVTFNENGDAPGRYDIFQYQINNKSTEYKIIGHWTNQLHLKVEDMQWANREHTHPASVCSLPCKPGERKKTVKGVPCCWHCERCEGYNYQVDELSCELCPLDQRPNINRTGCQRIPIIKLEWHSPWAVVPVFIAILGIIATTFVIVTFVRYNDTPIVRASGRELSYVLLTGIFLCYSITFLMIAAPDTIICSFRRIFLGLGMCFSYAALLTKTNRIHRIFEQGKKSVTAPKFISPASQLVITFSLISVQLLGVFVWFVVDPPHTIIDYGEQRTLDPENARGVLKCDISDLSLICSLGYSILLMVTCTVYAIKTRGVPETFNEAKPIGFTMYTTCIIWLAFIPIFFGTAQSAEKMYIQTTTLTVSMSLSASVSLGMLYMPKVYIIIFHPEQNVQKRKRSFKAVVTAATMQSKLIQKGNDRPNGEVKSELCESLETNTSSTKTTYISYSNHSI
row,SMILES,z-score
1,Cc1cccc(NC(=O)c2sc(Cl)nc2-c2ccccc2)c1,-0.374
2,CC(=O)c1cc2c(cc1NC(=O)CCCC(=O)O)OCO2,0.188
3,CCOCC(=O)Nc1cc(OC)c(Cl)cc1OC,-0.0397
4,Nn1c(SC/C=C/c2ccccc2)nnc1-c1ccncc1,-0.0688
5,COC(=O)c1ccc(CSc2nc3cc(Cl)ccc3s2)o1,-0.05
6,C/C(=N/OCC(=O)NCCCCCCNC(=O)CO/N=C(/C)c1cccs1)c1cccs1,-0.0928
7,CCN(CC)C(=O)CSc1nc2ccccc2c(=O)n1OC(C)C,-1.93
8,COc1ccc(CC(=O)Nc2ccc(-c3nnc(-c4ccccc4)o3)cc2)cc1,-0.584
9,CC(=O)Nc1ccc(OCC(O)CN2C(C)(C)CC(O)CC2(C)C)cc1 (stereo not given),-0.152
10,Cc1cc(S(=O)(=O)NC2CCCCC2)ccc1OCC(=O)NCc1cccnc1,-0.012
11,CCOC(=O)c1c(C)[nH]c(C(=O)N/N=C/c2cccc(OC)c2)c1C,-0.9
12,C=CCn1c(SCc2c(C)noc2C)nc2sc3c(c2c1=O)CCCCC3,-0.236
13,O=C(c1ccccc1)C(CCC(CN1CCOCC1)C(=O)c1ccccc1)CN1CCOCC1 (stereo not given),0.24
14,CCC(=NC1CC(C)(C)NC(C)(C)C1)C1=C(O)CC(C)(C)CC1=O,-0.141
15,Fc1ccccc1/C=N/Nc1nn[nH]n1,-0.0496
16,CC1CC(O)(Cc2ccccc2)C(C)CN1C (stereo not given),-0.335
17,Cc1ccc(S(=O)(=O)N2CCN(CC(=O)Nc3ccc([N+](=O)[O-])cc3)CC2)cc1C,-0.161
18,COC(=O)c1c(-c2ccc(Br)cc2)noc1N,-0.402
19,O=C1CC(c2ccccc2)Cc2nc(N3CCc4ccccc4C3)ncc21 (stereo not given),0.392
20,CCOC(=O)c1[nH]c(C(=O)O)c(CCC(=O)OC)c1C,-0.115
21,O=C(Nc1ccc(C(F)(F)F)cc1)C1(c2ccccc2)CC1,-0.816
22,C=CCn1c(SCn2nnc3ccccc3c2=O)nnc1-c1ccc(Cl)cc1,-0.876

row,SMILES,z-score
1,COc1ccc(CCN2C(=O)NC(NC(=O)CC(C)C)(C(F)(F)F)C2=O)cc1OC (stereo not given),-0.18
2,Brc1ccc(-c2nn3c(Cc4ccccc4)nnc3s2)o1,-1.76
3,O=C1CC(=C(c2ccccc2)c2ccccc2)C(=O)N1CCCCN1CCN(c2cccc(Cl)c2)CC1,-0.136
4,CCc1cc2c(NCCN3CCCCC3)ncnc2s1,0.793
5,COc1ccc(S(=O)(=O)NC2CCCCC2)cc1C,-0.174
6,CCOC(=O)c1ccc(NC2OC(=O)c3ccccc32)cc1 (stereo not given),-0.214
7,Cc1ccc(S(=O)(=O)N2CCN(C(=O)c3cc4c(C)nn(-c5ccccc5)c4s3)CC2)cc1,-0.0453
8,O=C(CCl)c1ccc(Cc2ncc(C(F)(F)F)cc2Cl)s1,-0.0387
9,O=C(/C=C/c1ccc(F)cc1)Nc1nc2ccccc2[nH]1,-0.235
10,CN(C)c1ccc(/C=C2/C(=O)N(c3ccc([N+](=O)[O-])cc3)N=C2N2CCOCC2)cc1,-0.0271
11,Cc1ccc(C(=O)COC(=O)CNC(=O)CN2C(=O)c3ccccc3C2=O)cc1,-0.0776
12,Cc1cc(NC(=O)CC23CC4CC(C2)CC(CC(=O)Nc2cc(C)on2)(C4)C3)no1,-0.164
13,COc1ccc(CC(=O)N2N=C(C)CC2(O)c2cccnc2)cc1 (stereo not given),-0.159
14,CCN=C(N/N=C/c1ccc([N+](=O)[O-])cc1)SC,-0.246
15,Cc1ccc(S(=O)(=O)N2CCCCC2)cc1NC(=O)CCOc1ccccc1,-0.138
16,CCc1ccc(C(=O)CN2C(=O)C(C)N(c3ccc(C)cc3)C2=O)cc1 (stereo not given),-0.302
17,S=C(Nc1ccc(Cl)cc1)NC1CC2CCCC(C1)N2C1CC1 (stereo not given),1.89
18,Cc1ccc(C(=O)C2OC(=O)C(C)(C)C(=O)C2(C)C)cc1 (stereo not given),0.0435
19,CCn1c(-c2cc(Br)cc(OC)c2O)nc2cc(S(=O)(=O)N(C)C)ccc21,-1.09
20,CC(C)c1ccc(SCc2noc(C(=O)NCC3CCCO3)c2C(=O)O)cc1 (stereo not given),-0.368
21,O=C1Cc2ccccc2Sc2ccccc21,-0.0326
22,Cc1nc(Cl)sc1C(=O)Nc1cccc2ccccc12,-0.365

row,SMILES,z-score
1,CC(C)CC(=O)OCc1cn(-c2ccccc2)nn1,0.0165
2,O=C(Nc1cccc(F)c1)N(Cc1ccc(Cl)cc1)CC(O)C(F)(F)F (stereo not given),0.0492
3,O=C(OCc1cnc(Cl)s1)c1cccc(Cl)c1,-0.021
4,CN1CCN(C(=O)/C(=C/c2ccccc2)c2ccccc2)CC1,-0.295
5,CCCCC(=O)Nc1cc(OC)c(NC(=O)C2CCCCC2)cc1OC,-0.2
6,CCOC(=O)N1CCN(C(=O)c2cc(-c3ccc(OCC)cc3)nc3ccccc23)CC1,-0.576
7,Cc1cccc(C(C)Nc2ccc([N+](=O)[O-])cn2)c1 (stereo not given),-0.34
8,O=C(C1CCN(S(=O)(=O)c2cccs2)CC1)N1CCN(c2ccccc2)CC1,-0.172
9,CCOC(=O)N1CCC(NC(=O)CSCc2nc(-c3sccc3C)oc2C)CC1,0.18
10,O=C1CC(C(=O)Nc2ccc(F)cc2)S/C(=N\N=C\c2ccco2)N1 (stereo not given),-0.192
11,Cc1cc(Cl)c(OCCCN(C)C)c(Br)c1,-0.483
12,COc1ccc(OC)c(-c2nc(C(N)=O)c3[nH]c(=O)n(-c4ccc(F)cc4)c3n2)c1,-0.455
13,Cc1cc(C)nc(Sc2nc(C)nc3c2oc2ccccc23)n1,-0.19
14,COCCN(C(=S)Nc1c(C)cc(C)cc1C)C(C)c1cccnc1 (stereo not given),-0.1
15,Nc1ccc2oc(-c3cccc4ccccc34)nc2c1,-0.0827
16,O=C(COC(=O)CCc1ccccc1)Nc1ncc(Cl)cc1Cl,-0.612
17,CC(C)(C)NC(=O)Cn1c(SCC(=O)Nc2nccs2)nc2ccccc21,-0.178
18,O=C(Nc1cccc(F)c1)C1CCCN1S(=O)(=O)c1cccc2cccnc12 (stereo not given),-0.182
19,CC(C)CNc1nc(Oc2ccc(=O)n(C)n2)nc(N2CCOCC2)n1,0.896
20,NC(=O)c1ccccc1OCCOCCOCCOc1ccccc1C(N)=O,0.836
21,COc1ccc(C(O)P(=O)(OCC(C)C)OCC(C)C)c(OC)c1 (stereo not given),-0.17
22,CCOc1ccccc1N1CC(C(=O)Nc2ccc(C(=O)O)cc2)CC1=O (stereo not given),0.0337

row,SMILES,z-score
1,CCOc1ccc(CCNC(=O)C2CCN(S(=O)(=O)N3CCOCC3)CC2)cc1OCC,0.142
2,COc1ccc(NS(=O)(=O)c2ccc(NC(=S)NC(=O)/C=C/c3ccccc3)cc2)nn1,-0.25
3,CCN1CCN(Cc2nc3c(c(=O)n(C)c(=O)n3C)n2C(C)C(C)=O)CC1 (stereo not given),1.36
4,Cn1cccc1Cc1nnc(SCC(=O)N2CCCCCC2)n1CCc1ccccc1,-0.547
5,CCc1ccccc1NC(=O)CSc1nnc([C@H](CCSC)NC(=O)OC(C)(C)C)o1,-0.132
6,Cc1nc2ccccc2n1CC(O)COC1CCCCC1 (stereo not given),-0.492
7,Cc1cccc(C2C3=C(Nc4[nH]n(-c5ccccc5)c(=O)c42)c2ccccc2C3=O)c1 (stereo not given),-0.621
8,O=C(N(Cc1ccccc1)c1ccccn1)C12CC3CC(CC(C3)C1)C2,-0.634
9,O=C(/C=C/c1ccc(F)cc1)NC(=S)NNC(=O)c1cccnc1,-0.12
10,COc1ccc(C(=O)OCC(=O)Nc2ccc(F)c(F)c2)cc1OC,-0.329
11,O=C(O)c1oc2ccc(Br)cc2c1-n1cccc1,-0.973
12,COc1ccc(C(CC(=O)c2ccc(C)cc2)C(C#N)C#N)cc1OC (stereo not given),-0.273
13,CC(=N\Nc1ccc(Cl)cc1)/C(=N/O)C(=O)Nc1ccccc1,0.0464
14,COc1ccc(C(=O)Oc2ccc3oc(=O)sc3c2)cc1,0.177
15,O=C(Nc1nc2c(s1)CCCC2)c1cc(-c2ccncc2)nc2ccccc12,-0.0362
16,Cn1c(=O)[nH]c(=O)c2c1nc(SCCN1CCOCC1)n2Cc1ccccc1,-0.109
17,CC(=O)Nc1nc2c(c3c1c(=O)oc1ccccc13)CC(C)CC2 (stereo not given),-0.424
18,O=S(=O)(Nc1nc2ccccc2nc1Cl)c1ccc2ccccc2c1,-0.627
19,O=C(O)c1nc(N2CCOCC2)nc(N2CCOCC2)n1,-0.103
20,CCOC(=O)N1CCN(C(=O)CN(C2CCCCC2)S(=O)(=O)c2ccc(F)cc2)CC1,0.315
21,O=C(Cn1nc(-c2ccccc2)ccc1=O)NCCN1CCN(c2cccc(Cl)c2)CC1,-0.34
22,CCOC(=O)N1CCN(C(=O)c2ccc(NS(C)(=O)=O)cc2)CC1,0.167

row,SMILES,z-score
1,CCn1cc(Br)c(C(=O)NN)n1,-0.14
2,CC(C)(C)c1ccc(C(=O)NCCCN2CCN(CCCNC(=O)c3ccc(C(C)(C)C)cc3)CC2)cc1,-0.701
3,Cc1ccc(S(=O)(=O)N2CCN(C(=O)CSc3nnc(-c4ccco4)o3)CC2)cc1,-0.115
4,CCN1C(=O)CC(C(=O)NC)SC1=Nc1cc(Cl)c(O)c(Cl)c1 (stereo not given),-0.672
5,Cc1ccc(-n2nnnc2SCC(=O)Nc2nc(-c3ccc(F)cc3)cs2)cc1C,0.0603
6,[O-][n+]1onc2c3cc(-c4ccccc4)nnc3ccc21,-0.825
7,CCSc1ncc(C)cc1[N+](=O)[O-],-0.12
8,O=C1CSC(c2ccc(F)cc2)N1c1nnc(C23CC4CC(CC(C4)C2)C3)s1 (stereo not given),-0.38
9,Cc1ccc(SCCNC(=O)c2ccccc2C)cc1,-0.0405
10,Cc1cc(C(F)(F)F)c(C#N)c(N2CCOCC2)n1,0.124
11,O=c1oc2ccccc2cc1-c1nnc(NCc2ccco2)s1,-0.037
12,CCOc1ccc2nc(NCCNC(=O)Nc3cccc(C)c3)c(C#N)cc2c1,-0.262
13,CCCc1cc(=O)oc2cc3oc(C)c(C)c3cc12,-0.654
14,COC(=O)c1cn(C)c2ccc(S(=O)(=O)N3CCCC3)cc2c1=O,0.0682
15,COC(=O)c1cn(CC(=O)N2CCCCCC2)c2ccccc12,-0.391
16,NC(=O)C1(N2CCCCC2)CCN(C2CC(=O)N(Cc3ccc(N4CCCC4=O)cc3)C2=O)CC1 (stereo not given),-0.289
17,Cc1cccc(Nc2ncc3c(n2)CC(c2ccco2)CC3=O)c1 (stereo not given),-1.12
18,CCOC(=O)N1CCC2(CC1)C(C(=O)C13CC4CC(CC(C4)C1)C3)C2(C#N)C#N (stereo not given),0.27
19,CCCN1C2CCCC1CC(NC(=O)c1ccccc1F)C2 (stereo not given),-0.558
20,COc1ccccc1NC(=O)C1=C(C)Nc2ncnn2C1c1ccccc1C (stereo not given),-0.278
21,COc1cc(CC(=O)Nc2ccc3nc(C)sc3c2)cc(OC)c1OC,-0.158
22,CC(C)(C)c1ccc(-c2nc(C#N)c(NCc3ccncc3)o2)cc1,-0.377
